Results published in paper PMC2172029.
Where “and” joins values, the source holds several entries; their conditions need not be identical. Equal values may be shown once.

Tests used:
[1] = biological target: human coilin tagged at the COOH terminus with CFP or YFP (human), P38432; assay: FRET or BRET; settings: remark: other sources report otherwise
[2] = biological target: human coilin tagged at the NH2 terminus with CFP or YFP (human), P38432; assay: FRET or BRET; settings: remark: other sources report otherwise

apparent FRET efficiency [1]	apparent FRET efficiency [2]	Binder
38.2%		human coilin tagged at the COOH terminus with CFP or YFP (natural protein) MAASETVRLRLQFDYPPPATPHCTAFWLLVDLNRCRVVTDLISLIRQRFGFSSGAFLGLYLEGGLLPPAESARLVRDNDCLRVKLEERGVAENSVVISNGDINLSLRKAKKRAFQLEEGEETEPDCKYSKKHWKSRENNNNNEKVLDLEPKAVTDQTVSKKNKRKNKATCGTVGDDNEEAKRKSPKKKEKCEYKKKAKNPKSPKVQAVKDWANQRCSSPKGSARNSLVKAKRKGSVSVCSKESPSSSSESESCDESISDGPSKVTLEARNSSEKLPTELSKEEPSTKNTTADKLAIKLGFSLTPSKGKTSGTTSSSSDSSAESDDQCLMSSSTPECAAGFLKTVGLFAGRGRPGPGLSSQT[… about 200 residues …]
	39.3% and 41.2%	human coilin tagged at the NH2 terminus with CFP or YFP (natural protein) MAASETVRLRLQFDYPPPATPHCTAFWLLVDLNRCRVVTDLISLIRQRFGFSSGAFLGLYLEGGLLPPAESARLVRDNDCLRVKLEERGVAENSVVISNGDINLSLRKAKKRAFQLEEGEETEPDCKYSKKHWKSRENNNNNEKVLDLEPKAVTDQTVSKKNKRKNKATCGTVGDDNEEAKRKSPKKKEKCEYKKKAKNPKSPKVQAVKDWANQRCSSPKGSARNSLVKAKRKGSVSVCSKESPSSSSESESCDESISDGPSKVTLEARNSSEKLPTELSKEEPSTKNTTADKLAIKLGFSLTPSKGKTSGTTSSSSDSSAESDDQCLMSSSTPECAAGFLKTVGLFAGRGRPGPGLSSQT[… about 200 residues …]
